Experimental data as given in the CheMixHub viscosity set.
“And” between values parts separate entries of the source, which are not always exact repeats. Identical values can stand only once. ± gives the uncertainty stated by the source. Further values from the same series stand in other lists.

Experiment: xn = mol fraction of the nth substance listed

Compound: CO + O
- viscosity (308.15 K, 101 kPa, x1 = 0.69): 0.872 ± 0.009 mPa·s
- viscosity (308.15 K, 101 kPa, x1 = 0.7522): 0.7684 ± 0.0073 mPa·s
- viscosity (308.15 K, 101 kPa, x1 = 0.83): 0.673 ± 0.007 mPa·s
- viscosity (308.15 K, 101.3 kPa, x1 = 0.4576): 1.098 ± 0.029 mPa·s
- viscosity (308.15 K, 101.3 kPa, x1 = 0.5675): 0.974 ± 0.026 mPa·s
- viscosity (308.15 K, 101.3 kPa, x1 = 0.6922): 0.829 ± 0.022 mPa·s
- viscosity (308.15 K, 101.3 kPa, x1 = 0.835): 0.667 ± 0.018 mPa·s
- viscosity (308.15 K, 101.3 kPa, x1 = 0.9144): 0.566 ± 0.015 mPa·s
- viscosity (313.15 K, 101 kPa, x1 = 0.024): 0.7156 ± 0.019 mPa·s
- viscosity (313.15 K, 101 kPa, x1 = 0.059): 0.793 ± 0.008 mPa·s
- viscosity (313.15 K, 101 kPa, x1 = 0.0597): 0.7907 ± 0.0083 mPa·s
- viscosity (313.15 K, 101 kPa, x1 = 0.0909): 0.8594 ± 0.018 mPa·s
- viscosity (313.15 K, 101 kPa, x1 = 0.0927): 0.8699 ± 0.023 mPa·s
- viscosity (313.15 K, 101 kPa, x1 = 0.12): 0.902 ± 0.01 mPa·s
- viscosity (313.15 K, 101 kPa, x1 = 0.128): 0.9553 ± 0.01 mPa·s
- viscosity (313.15 K, 101 kPa, x1 = 0.1662): 0.9879 ± 0.026 mPa·s
- viscosity (313.15 K, 101 kPa, x1 = 0.19): 0.989 ± 0.011 mPa·s
- viscosity (313.15 K, 101 kPa, x1 = 0.1986): 1.02 ± 0.027 mPa·s
- viscosity (313.15 K, 101 kPa, x1 = 0.2086): 1.06 ± 0.011 mPa·s
- viscosity (313.15 K, 101 kPa, x1 = 0.2491): 1.05 ± 0.028 mPa·s
- viscosity (313.15 K, 101 kPa, x1 = 0.27): 1.003 ± 0.011 mPa·s
- viscosity (313.15 K, 101 kPa, x1 = 0.2841): 1.052 ± 0.028 mPa·s
- viscosity (313.15 K, 101 kPa, x1 = 0.3041): 1.079 ± 0.011 mPa·s
- viscosity (313.15 K, 101 kPa, x1 = 0.3084): 1.049 ± 0.028 mPa·s
- viscosity (313.15 K, 101 kPa, x1 = 0.36): 1.045 ± 0.012 mPa·s
- viscosity (313.15 K, 101 kPa, x1 = 0.3673): 1.035 ± 0.028 mPa·s
- viscosity (313.15 K, 101 kPa, x1 = 0.4203): 0.9738 ± 0.0099 mPa·s
- viscosity (313.15 K, 101 kPa, x1 = 0.46): 0.997 ± 0.011 mPa·s
- viscosity (313.15 K, 101 kPa, x1 = 0.4752): 0.9589 ± 0.025 mPa·s
- viscosity (313.15 K, 101 kPa, x1 = 0.5235): 0.9177 ± 0.024 mPa·s
- viscosity (313.15 K, 101 kPa, x1 = 0.5657): 0.8887 ± 0.0087 mPa·s
- viscosity (313.15 K, 101 kPa, x1 = 0.57): 0.946 ± 0.011 mPa·s
- viscosity (313.15 K, 101 kPa, x1 = 0.6735): 0.7635 ± 0.02 mPa·s
- viscosity (313.15 K, 101 kPa, x1 = 0.69): 0.784 ± 0.008 mPa·s
- viscosity (313.15 K, 101 kPa, x1 = 0.7522): 0.702 ± 0.0068 mPa·s
- viscosity (313.15 K, 101 kPa, x1 = 0.8172): 0.6182 ± 0.017 mPa·s
- viscosity (313.15 K, 101 kPa, x1 = 0.83): 0.6344 ± 0.0044 mPa·s and 0.62 ± 0.007 mPa·s
- viscosity (313.15 K, 101 kPa, x1 = 0.92): 0.5221 ± 0.014 mPa·s
- viscosity (313.15 K, 101.3 kPa, x1 = 0.0588): 0.8 ± 0.021 mPa·s
- viscosity (313.15 K, 101.3 kPa, x1 = 0.1233): 0.941 ± 0.025 mPa·s
- viscosity (313.15 K, 101.3 kPa, x1 = 0.1943): 1.034 ± 0.027 mPa·s
- viscosity (313.15 K, 101.3 kPa, x1 = 0.2727): 1.074 ± 0.028 mPa·s
- viscosity (313.15 K, 101.3 kPa, x1 = 0.3599): 1.046 ± 0.027 mPa·s
- viscosity (313.15 K, 101.3 kPa, x1 = 0.4576): 0.981 ± 0.026 mPa·s
- viscosity (313.15 K, 101.3 kPa, x1 = 0.5675): 0.876 ± 0.023 mPa·s
- viscosity (313.15 K, 101.3 kPa, x1 = 0.6922): 0.752 ± 0.02 mPa·s
- viscosity (313.15 K, 101.3 kPa, x1 = 0.835): 0.612 ± 0.016 mPa·s
- viscosity (313.15 K, 101.3 kPa, x1 = 0.9144): 0.532 ± 0.014 mPa·s
- viscosity (313.15 K, 101.33 kPa, x1 = 0.0588): 0.823 ± 0.0082 mPa·s
- viscosity (313.15 K, 101.33 kPa, x1 = 0.1119): 0.858 ± 0.006 mPa·s
- viscosity (313.15 K, 101.33 kPa, x1 = 0.123): 0.96 ± 0.0096 mPa·s
- viscosity (313.15 K, 101.33 kPa, x1 = 0.194): 1.064 ± 0.011 mPa·s
- viscosity (313.15 K, 101.33 kPa, x1 = 0.273): 1.091 ± 0.011 mPa·s
- viscosity (313.15 K, 101.33 kPa, x1 = 0.2752): 0.982 ± 0.0069 mPa·s
- viscosity (313.15 K, 101.33 kPa, x1 = 0.36): 1.073 ± 0.011 mPa·s
- viscosity (313.15 K, 101.33 kPa, x1 = 0.458): 1.004 ± 0.01 mPa·s
- viscosity (313.15 K, 101.33 kPa, x1 = 0.4607): 0.965 ± 0.0068 mPa·s
- viscosity (313.15 K, 101.33 kPa, x1 = 0.692): 0.769 ± 0.0077 mPa·s
- viscosity (313.15 K, 101.33 kPa, x1 = 0.6981): 0.782 ± 0.0055 mPa·s
- viscosity (313.15 K, 101.33 kPa, x1 = 0.8322): 0.629 ± 0.0044 mPa·s
- viscosity (313.21 K, 101.33 kPa, x1 = 0.0583): 0.8215 ± 0.002 mPa·s
- viscosity (313.21 K, 101.33 kPa, x1 = 0.1229): 0.9519 ± 0.002 mPa·s
- viscosity (313.21 K, 101.33 kPa, x1 = 0.1889): 1.042 ± 0.002 mPa·s
- viscosity (313.21 K, 101.33 kPa, x1 = 0.2719): 1.085 ± 0.002 mPa·s
- viscosity (313.21 K, 101.33 kPa, x1 = 0.3592): 1.066 ± 0.002 mPa·s
- viscosity (313.21 K, 101.33 kPa, x1 = 0.4571): 0.9935 ± 0.002 mPa·s
